Consider 54 molecules from ChEMBL document CHEMBL5308541, “MAIP: An Open-Source Tool to Enrich High-Throughput Screening Output and Identify Novel, Druglike Molecules with Antimalarial Activity” (ACS Med Chem Lett, 2023).

The structures appear in SMILES notation. Hit rate of the full screen: of about 150,000 compounds, about 540 (0.36%) showed an effect of 50% or more. This is one part of the list.

The term % Inhibition denotes the drop in the measured response relative to a control, in per cent.

The assay deals with Plasmodium falciparum. Nature of the assay: Primary screen in NF54 nanoGlo assay, in single point, at 2uM, 72h; a lower Z score goes with more inhibition. The format is functional, Erythrocyte. The note with it: timepoint 72 hour.
Take `Cn1cc(-c2cccc(CNC(=O)[C@H](C3CC3)N3CCCC3)c2)cn1`: the “% Inhibition” value is reported as -6% and the Z score turned out to be 1.37.
Turning to `Cc1ccc2sc(NCCCN(C)C)nc2c1C`, the “% Inhibition” value is given as -3% and the Z score was determined as 0.52.
Taken in the same sequence, the figures for `CCN1CCC[C@@H]1CN1CCCN(C(=O)c2ccc3ncccc3c2)CC1` were -2% and 0.34.
Taken in the same sequence, the figures for `Nc1cc(NC2CCN(Cc3cccc(O)c3)CC2)nc(N2CCCC2)n1` were 2% and -0.45.
The like results for `COc1ccccc1-c1c(-c2nc3ccccc3s2)c(N)nc2cc(-c3ccc(C)cc3)nn12` were, in that order, 6% and -1.14.
Consider `Cc1ccc(OCCCC(=O)NC2CCCC2CO)cc1C` (stereo not drawn), for which the “% Inhibition” value is recorded as -7% and the Z score is 1.21.
The like results for `Fc1cc(CNc2ncnc3[nH]ncc23)ccc1-n1ccnc1` were, in that order, -2% and 0.35.
For `O=C(CC[C@H]1CCCN(Cc2ccc3ncccc3c2)C1)NCc1ccccc1F`, the “% Inhibition” value was -1% and the Z score was 0.25.
For the molecule `c1nc(C2CC2)ncc1CCNC1CCN(C2CCCCC2)CC1`, the “% Inhibition” value is reported as -7% and the Z score worked out at 1.14.
Taken in the same sequence, the figures for `COc1ccc(-c2[nH]c3nc(N)[nH]c(=O)c3c2-c2c(N)nc(N)[nH]c2=O)cc1F` were -2% and 0.4.
As to `OCc1ccc(CNCc2cc(O)c3cccc(Cl)c3n2)cc1`, the “% Inhibition” value was -19% and the Z score was 3.28.
Taken in the same sequence, the figures for `CN1CCN(CCCNc2nccc(-c3ccccn3)n2)CC1` were -5% and 1.02.
Taken in the same sequence, the figures for `NS(=O)(=O)c1cnc(NC[C@H](O)c2ccc(F)c(F)c2)s1` were -10% and 1.77.
With `c1nc2c(c(NCc3ccc4c(c3)OCCCO4)n1)CCNCC2`, the “% Inhibition” value was -6% and the Z score came out at 1.04.
The like results for `CN(CCN1CCCCCC1)C(=O)c1cc2c(Cl)cccc2[nH]1` were, in that order, -2% and 0.38.
The like results for `CN1CCCN(CC(=O)N2CCCO[C@@H](CN3CCCCC3)C2)CC1` were, in that order, 3% and -0.6.
As for `CCCCN1CCOC[C@H]1C(=O)NCCN1CCN(Cc2ccccc2)CC1`, the “% Inhibition” value was -9% and the Z score is recorded as 1.56.
The like results for `O=C(N[C@H]1CCCCNC1=O)c1ccc(N2CCC(NCc3cnn(-c4ccccc4)n3)CC2)cc1` were, in that order, -4% and 0.77.
Taken in the same sequence, the figures for `CNc1ccnc(NC[C@H]2CC[C@H](CO)CC2)n1` were -3% and 0.53.
As for `c1cc(NC2CCN(Cc3ccncc3)CC2)cc(-c2cnco2)c1`, the “% Inhibition” value is -11% and the Z score is 1.88.
The like results for `COc1ccnc(NC2CCN(C(=O)N[C@H]3CCc4[nH]ncc4C3)CC2)n1` were, in that order, 6% and -1.28.
Taken in the same sequence, the figures for `Cc1cc(-c2nc3cc4[nH]c(=O)[nH]c4cc3[nH]2)ccc1O` were -2% and 0.37.
Regarding `CC(=O)N(c1nc(CN2Cc3ccccc3OC(C)(C)C2)cs1)C1CC1`, the “% Inhibition” value is -3% and the Z score is on record as 0.56.
Turning to `c1cnc2cc(Oc3ccc4nccnc4c3)ccc2n1`, the “% Inhibition” value is given as -7% and the Z score amounted to 1.23.
Taken in the same sequence, the figures for `CN1CCN(CCCN[C@H]2CCCOc3ccc(Cl)cc32)CC1` were 7% and -1.2.
Taken in the same sequence, the figures for `c1ccc(CCC23CN(Cc4ccccn4)CC2CN(Cc2ccns2)C3)cc1` (stereo not drawn) were 86% and -17.09.
Taken in the same sequence, the figures for `CCCC1(CCC)NC(=O)N(C[C@H]2CCOC2)C1=O` were 8% and -1.4.
On to `CN1CCCC[C@@H]1CCNc1cc(NCCO)ncn1`, for which the “% Inhibition” value is given as -6% and the Z score came out at 1.19.
The like results for `Cc1nc(NCc2ccccc2Cn2ccnc2)c2c(C)csc2n1` were, in that order, 7% and -1.17.
Taken in the same sequence, the figures for `CC(C)(C)OC(=O)N1CCN(CCCNc2nc(-c3ccncc3)nc3ccccc23)CC1` were 11% and -1.63.
For the molecule `CCOc1ccc(O[C@@H](C)c2nnc(-c3c(C)noc3C3CC3)o2)cc1`, the “% Inhibition” value is -8% and the Z score worked out at 1.15.
As to `Fc1cc2ncc(N3CCC4(CCNC4)CC3)nc2cc1F`, the “% Inhibition” value is -9% and the Z score is 1.33.
With `c1ccc2[nH]c(N3CCC(c4c[nH]c5ccccc45)CC3)nc2c1`, the “% Inhibition” value came to 9% and the Z score is recorded as -1.85.
Taken in the same sequence, the figures for `Cn1ncc(C(F)(F)F)c1CN[C@H]1CCCc2c1[nH]c1ccc(Cl)cc21` were -15% and 2.6.
The like results for `Cn1cc(CNc2nc3cc(F)ccc3n2C)c(-c2cccnc2)n1` were, in that order, -4% and 0.78.
Turning to `CN(C)CCN1CCN(c2ncnc3[nH]ccc23)CCC1=O`, the “% Inhibition” value is reported as -6% and the Z score worked out at 1.08.
Regarding `Fc1ccc2[nH]c(-c3cc4n(n3)CCCN(C/C=C/c3ccco3)C4)nc2c1`, the “% Inhibition” value is 3% and the Z score was -0.51.
The like results for `Cc1cc(F)cc(NC(=O)c2cc3n(n2)CCN(C)S3(=O)=O)c1` were, in that order, -2% and 0.47.
Taken in the same sequence, the figures for `CN(Cc1ccoc1)Cc1cccc(-c2nc(-c3ccc(O)cc3)cc(=O)[nH]2)c1` were -6% and 0.97.
For the molecule `CCOC(=O)C[C@H](OC(=O)CCN1CCCC1=O)C1CC1`, the “% Inhibition” value is recorded as -13% and the Z score came to 2.76.
Consider `CC(=O)c1c(C)nn([C@@H](C)CC(=O)N2CCC(c3ncc[nH]3)CC2)c1C`, for which the “% Inhibition” value is recorded as 1% and the Z score is listed as -0.2.
Taken in the same sequence, the figures for `CC(C)C(=O)N1CCC[C@H](Nc2cc(N3CCC(O)CC3)ncn2)C1` were 9% and -1.97.
Taken in the same sequence, the figures for `Cc1nc2cc(NC(=O)c3cc(-c4cccnc4)[nH]n3)ccc2n1CCCN(C)C` were 6% and -1.02.
The like results for `O=C(C1CCN(Cc2ccc3cn[nH]c3c2)CC1)N(Cc1ccccc1)C1CC1` were, in that order, -1% and 0.21.
As for `Cc1ccc(NCCCNCc2ccc(CO)o2)nc1`, the “% Inhibition” value is listed as -10% and the Z score turned out to be 2.19.
For the molecule `O=C([C@@H]1CCCc2c1[nH]c1ccccc21)N1CCC(O)(CN2CCCC2)CC1`, the “% Inhibition” value is recorded as -5% and the Z score is reported as 0.81.
Taken in the same sequence, the figures for `OCCNc1cc(NCCN2CCC[C@H](CO)C2)ncn1` were -11% and 1.94.
Taken in the same sequence, the figures for `Cn1c(=O)n(C)c2cc(CNc3nc(N)nc4c3CCNCC4)ccc21` were -4% and 0.71.
Taken in the same sequence, the figures for `c1ccc(-c2cc(Cn3ccc(-c4cccc(-c5cncnc5)c4)n3)on2)nc1` were -19% and 3.33.
For the molecule `Cc1cccc2c(-c3ncnc4[nH]ccc34)c[nH]c12`, the “% Inhibition” value came to 1% and the Z score is on record as -0.19.
In the case of `CN1CCC(N(Cc2ccccc2)C(=O)Cc2c[nH]c3ncccc23)CC1`, the “% Inhibition” value is recorded as -1% and the Z score stood at 0.19.
With `CC[C@@H](CNc1nccc(C)n1)N1CCCCC1`, the “% Inhibition” value is reported as -6% and the Z score was determined as 1.01.
The like results for `CN(C(=O)N1CCS(=O)(=O)CC1)C1(C(N)=O)CCCC1` were, in that order, 7% and -1.59.
Taken in the same sequence, the figures for `Cc1[nH]nc2ncc(CNC[C@H](O)c3ccc(F)cc3)cc12` were -4% and 0.67.
